# The inconclusive results got no clear call from the source; some entries with a clear call stand among them for comparison. No potency is given beside an inconclusive call; the fits are too rough. Activity calls are given as the source filed them. The call rests on the fitted dose curve; in most records, active means well fitted cell-killing curve with a large enough effect in the repeat runs; inconclusive means weak or mixed curves; inactive means no such curve, though single readings can be large or run the other way.
# Assay: qHTS assay to identify small molecule antagonists of the peroxisome proliferator-activated receptor delta (PPARd) signaling pathway - cell viability counter screen (AID 743213); further: nearly all actives have a fitted effect of over 50% in size
# Details: PPARd-bla HEK293H viability, CellTiter-Glo luminescence, 17 h; viability change, negative = cytotoxic: at 62 µM (top of the series) unless noted
# Summary of the method: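 HEK293H cells with the PPARd UAS-bla reporter, co-treated 17 h at 37 C with compounds and L165041 (300 nM final), were lysed with CellTiter-Glo. Luminescence indicated viable cell content.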
# On the % scale 0 is the no-effect control and ±100 the full control effect; potency means the concentration at half of the fitted maximal effect; tags describe the fitted curve by direction and shape.
SMILES,Potency,"viability change, negative = cytotoxic"
CCN1CCCC1=O,"inconclusive [cytotoxic, full curve, poor fit]",
O=C(NCC1CN(c2ccc(N3CCOCC3=O)cc2)C(=O)O1)c1ccc(Cl)s1 (stereo not drawn),"inconclusive [cytotoxic, partial curve, poor fit]",
CCCCC(=O)OCC(=O)[C@H]1[C@H](C)C[C@H]2[C@@H]3C[C@H](F)C4=CC(=O)C=C[C@]4(C)[C@@]3(F)[C@@H](O)C[C@@]21C,inactive,
COC(C)(C)CC(C)=O,"inconclusive [cytotoxic, full curve, poor fit]",
Cn1c(NCCN(CCO)CCCc2ccc([N+](=O)[O-])cc2)cc(=O)n(C)c1=O,"inconclusive [cytotoxic, single point]",
CCCOC(=O)c1ccc(N)cc1,inactive,
C[n+]1ccccc1/C=N/O,"inconclusive [cytotoxic, single point]",
CC(C)C(=O)OCCc1ccccc1,inactive,
O=C(O)c1ccc(O)c(O)c1,,inconclusive: -24.6% [cytotoxic]
O=c1c2ccccc2oc2ccccc12,"inconclusive [cytotoxic, single point]",
C=CCNC(N)=S,inactive,
CC(=O)Oc1cccc(C)c1,inactive,
CCCC(=O)OCCC(C)C,"inconclusive [cytotoxic, single point]",

# Reference: PubChem BioAssay (Tox21)
